Patent US20210230272A1 (L AND L BIOPHARMA, published 2021)

Tests used:
human T cell CD3 [1] = biological target: T1, human T cell CD3 (human); assay: flow cytometry; EC50 ratio to LB155
T1 construct: whole, on cells; also called CD3 (T cell)

human T cell CD3 [2] = biological target: T1, human T cell CD3; assay: flow cytometry on activated human T cells
TGFβ1 [3] = biological target: T2, TGFβ1 (human, UniProt P01137 fragment); assay: ELISA, TGFβ1 coated; mouse serum 37° C., 0 h
T2 construct: also called TGFβI; human TGFβI

TGFβ2 = biological target: T3, TGFβ2 (human, UniProt P61812 303-414); assay: ELISA, TGFβ2 coated
T3 construct: also called TGFβII
T3 sequence (looked up): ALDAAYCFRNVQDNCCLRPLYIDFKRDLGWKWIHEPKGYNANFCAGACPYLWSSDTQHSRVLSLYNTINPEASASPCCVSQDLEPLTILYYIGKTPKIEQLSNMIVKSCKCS

TGFβ1 [4] = biological target: T2, TGFβ1; assay: ELISA, TGFβ1 coated; mouse serum 37° C., 24 h
T2 sequence (P01137 279-390 limits assumed): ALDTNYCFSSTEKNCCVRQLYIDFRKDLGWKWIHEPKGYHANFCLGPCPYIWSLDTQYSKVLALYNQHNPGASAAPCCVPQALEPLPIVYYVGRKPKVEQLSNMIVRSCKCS

TGFβ1 [5] = biological target: T2, TGFβ1; assay: ELISA, TGFβ1 coated; mouse serum 37° C., 72 h
TGFβ1 [6] = biological target: T2, TGFβ1; assay: ELISA, TGFβ1 coated
[7] = biological target: T4, IL10 antibody (Sino biological, Cat #SEKA10947); assay: ELISA with IL10 Ab; mouse serum 37° C.
T4 construct: also called IL10 Ab; HRP labeled rabbit anti-human IL10

[8] = biological target: T4, IL10 antibody (Sino biological, Cat …); assay: ELISA with IL10 Ab; mouse serum 37° C., 24 h
[9] = biological target: T4, IL10 antibody (Sino biological, Cat …); assay: ELISA with IL10 Ab; mouse serum 37° C., 72 h
[10] = biological target: T4, IL10 antibody (Sino biological, Cat …); assay: ELISA with IL10 Ab; mouse serum 37° C., 0 h
[11] = biological target: T4, IL10 antibody (Sino biological, Cat …); assay: sandwich ELISA: hCLDN18.2+ cells on the plate, HRP rabbit anti-human IL10
FcγR I/CD64 = biological target: T5, FcγR I/CD64 (UniProt P12314 16-288); assay: ELISA, CD64 coated
Sequence of FcγR I/CD64 (P12314 16-288 limits assumed): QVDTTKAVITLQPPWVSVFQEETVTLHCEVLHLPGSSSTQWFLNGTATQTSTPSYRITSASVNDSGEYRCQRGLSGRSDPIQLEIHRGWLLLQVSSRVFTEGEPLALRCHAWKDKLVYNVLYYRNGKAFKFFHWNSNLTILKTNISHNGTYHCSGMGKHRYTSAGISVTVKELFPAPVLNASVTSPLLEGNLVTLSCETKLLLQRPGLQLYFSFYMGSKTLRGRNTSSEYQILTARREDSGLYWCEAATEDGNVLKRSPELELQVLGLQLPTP
T5 construct: also called CD64 (FcγR I)

[12] = biological target: T4, IL10 antibody (Sino biological, Cat …); assay: ELISA for the IL10 part

T1 sequence (P07766 23-207, chain 1 of 4): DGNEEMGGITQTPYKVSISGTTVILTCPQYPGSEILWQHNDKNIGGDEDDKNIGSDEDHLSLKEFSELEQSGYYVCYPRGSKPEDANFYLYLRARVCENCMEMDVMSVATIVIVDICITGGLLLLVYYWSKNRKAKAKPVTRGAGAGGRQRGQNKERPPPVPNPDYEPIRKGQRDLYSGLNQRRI
T1 sequence (P09693 23-182, chain 2 of 4, further chain): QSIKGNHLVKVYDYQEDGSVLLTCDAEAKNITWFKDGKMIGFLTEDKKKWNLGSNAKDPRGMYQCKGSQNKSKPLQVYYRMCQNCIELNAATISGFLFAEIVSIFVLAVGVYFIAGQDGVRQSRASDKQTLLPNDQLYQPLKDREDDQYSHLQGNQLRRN
T1 sequence (P04234 22-171, chain 3 of 4, further chain): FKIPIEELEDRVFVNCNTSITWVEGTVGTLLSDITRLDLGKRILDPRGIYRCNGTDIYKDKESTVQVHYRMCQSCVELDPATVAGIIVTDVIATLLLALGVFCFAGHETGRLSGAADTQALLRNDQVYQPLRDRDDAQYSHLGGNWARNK
T1 sequence (P20963 22-164, chain 4 of 4, further chain): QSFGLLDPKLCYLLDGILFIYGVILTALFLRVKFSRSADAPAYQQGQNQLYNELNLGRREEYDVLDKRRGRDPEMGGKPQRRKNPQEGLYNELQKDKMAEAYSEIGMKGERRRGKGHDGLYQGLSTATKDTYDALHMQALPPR

B1: LB193 (bispecific antibody)
light: DIVMTQSPDSLAVSLGERATISCKSSQSLLNSGNQKNYLTWYQQKPGQPPKLLIYWASTRESGVPDRFSGSGSGTDFTLTISSLQAEDVAVYYCQNDYFYPFTFGQGTKLEIKRTVAAPSVFIFPPSDEQLKSGTASVVCLLNNFYPREAKVQWKVDNALQSGNSQESVTEQDSKDSTYSLSSTLTLSKADYEKHKVYACEVTHQGLSSPVTKSFNRGEC
heavy: not shown
- EC50 fold change (human T cell CD3 [1]): 0.62
- EC50 (human T cell CD3 [2]): 10300 pM

B2: LB401 (bispecific antibody, human IgG1, kappa)
light: DIVMTQSPDSLAVSLGERATISCKSSQSLLNSGNQKNYLTWYQQKPGQPPKLLIYWASTRESGVPDRFSGSGSGTDFTLTISSLQAEDVAVYYCQNDYFYPFTFGQGTKLEIKRTVAAPSVFIFPPSDEQLKSGTASVVCLLNNFYPREAKVQWKVDNALQSGNSQESVTEQDSKDSTYSLSSTLTLSKADYEKHKVYACEVTHQGLSSPVTKSFNRGEC
heavy: QVQLVQSGAEVKKPGSSVKVSCKASGYAFSNYLIEWVKQAPGQGLEWIGLINPGSGGTNYNEKFKGKATITADKSTSTAYMELSSLRSEDTAVYYCARVYYGNSFAYWGQGTLVTVSS[human IgG1 constant region not shown]GGGGSGGGGSGGGGSGIPPHVQKSVNNDMIVTDNNGAVKFPQLCKFCDVRFSTCDNQKSCMSNCSITSICEKPQEVCVAVWRKNDENITLETVCHDPKLPYHDFILEDAASPKCIMKEKKKPGETFFMCSCSSDECNDNIIFSEEYNTSNPD
notes: Ab10VH-Hc (hIgG1, K to A)-(G4S)3-TGFβRII extracellular region; also called TRAP
- EC50 (TGFβ1 [3]): 1180 pM
- EC50 (TGFβ2): 11800 pM
- EC50 (TGFβ1 [4]): 1400 pM
- EC50 (TGFβ1 [5]): 6920 pM
- EC50 (TGFβ1 [6]): 260 pM

B3: LB401.2 (bispecific antibody, human IgG1, kappa)
light: DIVMTQSPDSLAVSLGERATISCKSSQSLLNSGNNKNYLAWYQQKPGQPPKLLIYWASTRESGVPDRFSGSGSGTDFTLTISSLQAEDVAVYYCQNDYFYPFTFGQGTKLEIKRTVAAPSVFIFPPSDEQLKSGTASVVCLLNNFYPREAKVQWKVDNALQSGNSQESVTEQDSKDSTYSLSSTLTLSKADYEKHKVYACEVTHQGLSSPVTKSFNRGEC
heavy: QVQLVQSGAEVKKPGSSVKVSCKASGYAFSNYLIEWVKQAPGQGLEWIGLINPGSGGTNYNEKFKGKATITADKSTSTAYMELSSLRSEDTAVYYCARVYYGNSFAYWGQGTLVTVSS[human IgG1 constant region not shown]GGGGSGGGGSGGGGSGIPPHVQKSVNNDMIVTDNNGAVKFPQLCKFCDVRFSTCDNQKSCMSNCSITSICEKPQEVCVAVWRKNDENITLETVCHDPKLPYHDFILEDAASPKCIMKEKKKPGETFFMCSCSSDECNDNIIFSEEYNTSNPD
- EC50 (TGFβ2): 14200 pM
- EC50 (TGFβ1 [6]): 310 pM

B4: LB432 (bispecific antibody, human IgG1, kappa)
light: DIVMTQSPDSLAVSLGERATISCKSSQSLLNSGNQKNYLTWYQQKPGQPPKLLIYWASTRESGVPDRFSGSGSGTDFTLTISSLQAEDVAVYYCQNDYFYPFTFGQGTKLEIKRTVAAPSVFIFPPSDEQLKSGTASVVCLLNNFYPREAKVQWKVDNALQSGNSQESVTEQDSKDSTYSLSSTLTLSKADYEKHKVYACEVTHQGLSSPVTKSFNRGEC
heavy: SPGQGTQSENSCTHFPGNLPNMLRDLRDAFSRVKTFFQMKDQLDNLLLKESLLEDFKGYLGCQALSEMIQFYLEEVMPQAENQDPDIKAHVNSLGENLKTLRLRLRRCHRFLPCENKSKAVEQVKNAFNKLQEKGIYKAMSEFDIFINYIEAYMTMKIRNGGGGSGGGGSGGGGSQVQLVQSGAEVKKPGSSVKVSCKASGYAFSNYLIEWVKQAPGQGLEWIGLINPGSGGTNYNEKFKGKATITADKSTSTAYMELSSLRSEDTAVYYCARVYYGNSFAYWGQGTLVTVSS[human IgG1 constant region not shown]
- EC50 change, 72 h against 0 h in serum [7]: 1.4 times
- EC50 [8]: 80 pM
- EC50 [9]: 115 pM
- EC50 [10]: 83 pM
- EC50 [11]: 11300 pM

B5: LB433 (bispecific antibody, human IgG1, kappa)
light: DIVMTQSPDSLAVSLGERATISCKSSQSLLNSGNQKNYLTWYQQKPGQPPKLLIYWASTRESGVPDRFSGSGSGTDFTLTISSLQAEDVAVYYCQNDYFYPFTFGQGTKLEIKRTVAAPSVFIFPPSDEQLKSGTASVVCLLNNFYPREAKVQWKVDNALQSGNSQESVTEQDSKDSTYSLSSTLTLSKADYEKHKVYACEVTHQGLSSPVTKSFNRGEC
heavy: QVQLVQSGAEVKKPGSSVKVSCKASGYAFSNYLIEWVKQAPGQGLEWIGLINPGSGGTNYNEKFKGKATITADKSTSTAYMELSSLRSEDTAVYYCARVYYGNSFAYWGQGTLVTVSS[human IgG1 constant region not shown]GGGGSGGGGSGGGGSSPGQGTQSENSCTHFPGNLPNMLRDLRDAFSRVKTFFQMKDQLDNLLLKESLLEDFKGYLGCQALSEMIQFYLEEVMPQAENQDPDIKAHVNSLGENLKTLRLRLRRCHRFLPCENKSKAVEQVKNAFNKLQEKGIYKAMSEFDIFINYIEAYMTMKIRN
notes: Ab10VH-Hc (hIgG1, K to A)-(G4S)3-IL10
- binding result (FcγR I/CD64): binds

B6: LB4333 (bispecific antibody, human IgG1, kappa)
light: DIVMTQSPDSLAVSLGERATISCKSSQSLLNSGNQKNYLTWYQQKPGQPPKLLIYWASTRESGVPDRFSGSGSGTDFTLTISSLQAEDVAVYYCQNDYFYPFTFGQGTKLEIKRTVAAPSVFIFPPSDEQLKSGTASVVCLLNNFYPREAKVQWKVDNALQSGNSQESVTEQDSKDSTYSLSSTLTLSKADYEKHKVYACEVTHQGLSSPVTKSFNRGEC
heavy: QVQLVQSGAEVKKPGSSVKVSCKASGYAFSNYLIEWVKQAPGQGLEWIGLINPGSGGTNYNEKFKGKATITADKSTSTAYMELSSLRSEDTAVYYCARVYYGNSFAYWGQGTLVTVSS[human IgG1 constant region with L234A (EU numbers) not shown]GGGGSGGGGSGGGGSSPGQGTQSENSCTHFPGNLPNMLRDLRDAFSRVKTFFQMKDQLDNLLLKESLLEDFKGYLGCQALSEMIQFYLEEVMPQAENQDPDIKAHVNSLGENLKTLRLRLRRCHRFLPCENKSKAVEQVKNAFNKLQEKGIYKAMSEFDIFINYIEAYMTMKIRN
- EC50 [12]: 190 pM

B7: LB4334 (bispecific antibody)
light: DIVMTQSPDSLAVSLGERATISCKSSQSLLNSGNQKNYLTWYQQKPGQPPKLLIYWASTRESGVPDRFSGSGSGTDFTLTISSLQAEDVAVYYCQNDYFYPFTFGQGTKLEIKRTVAAPSVFIFPPSDEQLKSGTASVVCLLNNFYPREAKVQWKVDNALQSGNSQESVTEQDSKDSTYSLSSTLTLSKADYEKHKVYACEVTHQGLSSPVTKSFNRGEC
heavy: QVQLVQSGAEVKKPGSSVKVSCKASGYAFSNYLIEWVKQAPGQGLEWIGLINPGSGGTNYNEKFKGKATITADKSTSTAYMELSSLRSEDTAVYYCARVYYGNSFAYWGQGTLVTVSS[human IgG1 constant region with changes not shown]GGGGSGGGGSGGGGSSPGQGTQSENSCTHFPGNLPNMLRDLRDAFSRVKTFFQMKDQLDNLLLKESLLEDFKGYLGCQALSEMIQFYLEEVMPQAENQDPDIKAHVNSLGENLKTLRLRLRRCHRFLPCENKSKAVEQVKNAFNKLQEKGIYKAMSEFDIFINYIEAYMTMKIRN
- EC50 [12]: 230 pM

B8: LB4335 (bispecific antibody, human IgG1, kappa)
light: DIVMTQSPDSLAVSLGERATISCKSSQSLLNSGNQKNYLTWYQQKPGQPPKLLIYWASTRESGVPDRFSGSGSGTDFTLTISSLQAEDVAVYYCQNDYFYPFTFGQGTKLEIKRTVAAPSVFIFPPSDEQLKSGTASVVCLLNNFYPREAKVQWKVDNALQSGNSQESVTEQDSKDSTYSLSSTLTLSKADYEKHKVYACEVTHQGLSSPVTKSFNRGEC
heavy: QVQLVQSGAEVKKPGSSVKVSCKASGYAFSNYLIEWVKQAPGQGLEWIGLINPGSGGTNYNEKFKGKATITADKSTSTAYMELSSLRSEDTAVYYCARVYYGNSFAYWGQGTLVTVSSASTKGPSVFPLAPSSKSTSGGTAALGCLVKDYFPEPVTVSWNSGALTSGVHTFPAVLQSSGLYSLSSVVTVPSSSLGTQTYICNVNHKPSNTKVDKKV[human IgG1 Fc with changes not shown]AGGGGSGGGGSGGGGSSPGQGTQSENSCTHFPGNLPNMLRDLRDAFSRVKTFFQMKDQLDNLLLKESLLEDFKGYLGCQALSEMIQFYLEEVMPQAENQDPDIKAHVNSLGENLKTLRLRLRRCHRFLPCENKSKAVEQVKNAFNKLQEKGIYKAMSEFDIFINYIEAYMTMKIRN
- EC50 [12]: 310 pM
